Among all 310,000 compounds or so, about 14,000 (4.5%) showed an effect of 50% or more. Effects have a minus sign here. The list shows a part of the results.
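Note: peak tail current of the secondary pulse compared with the same well before compound.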

Chain of human ether-à-go-go-related gene (hERG) potassium channel (Q12809 whole entry, looked up): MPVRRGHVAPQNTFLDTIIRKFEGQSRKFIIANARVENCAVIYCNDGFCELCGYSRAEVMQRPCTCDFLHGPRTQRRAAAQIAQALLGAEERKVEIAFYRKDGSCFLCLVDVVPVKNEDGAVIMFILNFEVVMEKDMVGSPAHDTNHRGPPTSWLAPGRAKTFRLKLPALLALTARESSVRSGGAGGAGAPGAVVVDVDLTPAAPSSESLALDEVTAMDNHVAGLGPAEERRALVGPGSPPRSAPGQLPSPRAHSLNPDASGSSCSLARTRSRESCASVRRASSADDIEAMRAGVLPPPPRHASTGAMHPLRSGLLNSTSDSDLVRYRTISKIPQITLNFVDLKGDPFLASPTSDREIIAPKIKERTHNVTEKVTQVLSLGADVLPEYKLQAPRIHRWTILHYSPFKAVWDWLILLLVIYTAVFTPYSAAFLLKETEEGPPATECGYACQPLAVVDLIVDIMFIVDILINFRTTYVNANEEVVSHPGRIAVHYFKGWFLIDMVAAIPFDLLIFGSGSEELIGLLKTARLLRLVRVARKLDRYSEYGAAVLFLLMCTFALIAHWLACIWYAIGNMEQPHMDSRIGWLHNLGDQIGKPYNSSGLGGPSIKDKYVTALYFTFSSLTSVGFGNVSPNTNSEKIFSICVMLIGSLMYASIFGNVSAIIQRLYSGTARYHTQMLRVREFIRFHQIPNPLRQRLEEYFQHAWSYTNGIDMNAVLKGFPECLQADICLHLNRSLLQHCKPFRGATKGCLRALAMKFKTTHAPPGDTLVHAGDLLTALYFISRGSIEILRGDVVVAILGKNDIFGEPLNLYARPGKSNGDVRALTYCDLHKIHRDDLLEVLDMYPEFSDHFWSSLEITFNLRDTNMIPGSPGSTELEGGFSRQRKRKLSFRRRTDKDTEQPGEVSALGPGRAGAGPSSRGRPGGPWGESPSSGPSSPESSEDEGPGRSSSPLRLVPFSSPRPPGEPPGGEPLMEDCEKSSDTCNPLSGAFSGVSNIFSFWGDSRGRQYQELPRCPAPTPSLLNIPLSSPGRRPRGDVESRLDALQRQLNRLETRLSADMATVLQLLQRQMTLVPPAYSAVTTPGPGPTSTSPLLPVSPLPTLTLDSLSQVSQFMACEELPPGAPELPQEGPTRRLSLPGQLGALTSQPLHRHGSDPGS

The assay concerns the target human ether-à-go-go-related gene (hERG) potassium channel (human, UniProt Q12809). Nature of the assay: primary screen, population patch clamp on CHO cells stably expressing hERG.
`CN(C)Cc1c(C(=O)N/N=C/C=C/c2ccccc2)nnn1-c1nonc1N`: the “hERG current change (%, negative = inhibition) at 10uM” value was -24.9%. The same measure for `c1cncc(-c2nc(-c3cccs3)cs2)c1`: -21.1%; for `O=C(c1ccco1)N1CCCSC1=Nc1ccccc1`: 12%.

Consider `COc1ccc(NC(=O)CSCc2cc(=O)n3cc(C)sc3n2)cc1`, for which the “hERG current change (%, negative = inhibition) at 10uM” value is reported as 10%. Under `O=C(COc1ccccc1)NCC(=O)N/N=C/c1ccc(O)cc1O` stands -15.5%; under `O=C(CCCOc1ccc(Cl)cc1Cl)Nc1ccc(O)cc1C(=O)O`, 13.8%. The same measure for `Cn1c(SCc2cccc([N+](=O)[O-])c2)nc2ccccc2c1=O`: 7.88%; for `CC(C)c1cc(NCCCN2CCOCC2)n2c(nc3ccccc32)c1C#N`: -79.9%; for `CC(C)N(C(=O)COC(=O)[C@H](C)NC(N)=O)c1ccccc1`: 9.03%. Consider `CCN(CC)CCn1c(SCC(=O)Nc2cccc(OC)c2)nc2c(sc3ccccc32)c1=O`, for which the “hERG current change (%, negative = inhibition) at 10uM” value is -69.2%. Take `C=CCn1c(C)cc(C(=O)Cn2nc(C(=O)O)c3ccccc3c2=O)c1C`: the “hERG current change (%, negative = inhibition) at 10uM” value is listed as -8.69%. Under `CCNC(=O)COc1ccc(OCc2ccccc2)cc1` stands -23.4%. Turning to `COc1ccccc1NC(=O)CCSc1nnc(-c2ccc(O)cc2)o1`, the “hERG current change (%, negative = inhibition) at 10uM” value is -4.08%. The same measure for `CCN(CC)C(=O)CSc1nc2c(sc(=S)n2-c2ccccc2OC)c(=O)n1-c1ccccc1`: -4.22%. Turning to `C(=C\c1ccncc1)/c1ccccc1`, the “hERG current change (%, negative = inhibition) at 10uM” value is recorded as -10.6%.

Regarding `Cc1ccccc1NC(=O)c1ccc(CN2CC(=O)N3CCCCC3C2=O)cc1` (stereo not drawn), the “hERG current change (%, negative = inhibition) at 10uM” value is -0.861%. The same measure for `CCOC(=O)c1ccc(NC(=O)COc2ccc(-n3cnnn3)cc2)cc1`: -19.8%; for `CCC(OC(=O)c1nsc(Cl)c1Cl)C(=O)NCCc1ccccc1` (stereo not drawn): 16%.

`O=C(Cc1n[nH]c(=O)c2ccccc12)OCC(=O)c1ccccc1`: the “hERG current change (%, negative = inhibition) at 10uM” value turned out to be 10.1%. The same measure for `C#Cc1ccc([C@H]2C=C(C(=O)NCc3ccccc3)O[C@@H](OCc3ccc(CO)cc3)C2)cc1`: 10.5%; for `CC(C(=O)N1CCOCC1)N1C(=O)c2cccc3cccc(c23)C1=O` (stereo not drawn): 16.6%; for `CCC1(CC)Cc2ccccc2C2=C(C(=O)N3CCCCC3)C(=O)C(=O)N21`: 2.82%. Take `CCCN(CC(=O)Nc1ccccc1C)C(=O)C1CC(=O)N(c2ccccc2C(C)CC)C1` (stereo not drawn): the “hERG current change (%, negative = inhibition) at 10uM” value came to 3.95%. Turning to `Cc1cc(C(C)(C)C)cc(C)c1COC(=O)c1cccnc1`, the “hERG current change (%, negative = inhibition) at 10uM” value is -14.9%.
